The list shows a part of the results. At the low end of the ranking the order means little.

The target in the assay is GST-SBP-SLBP (stem-loop binding protein) (UniProt Q14493). As to the kind of experiment: targeted RNA Bind-n-Seq.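 Further: DESeq read counts versus GST-SBP nonspecific binding control pulldown.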 Conditions: RBNS binding buffer: 25 mM Tris pH 7.5, 150 mM KCl, 3 mM MgCl2, 0.1% Tween, 0.5 mg/mL BSA, 1 mM DTT; 27 nM protein, 750 pM RNA pool; temperature not stated; high values mean tight binding.
Take “GGUCACGUCUCAAUCAACUCAAUCUCCAGGGAAAACCCUGGCAUUUUCAACAGCUCGCAGUCAAG”: the binding signal (log2 fold change) was -0.377.
With “GGUCACGUCUCAAUCAACUCUUUCCCAGGAGUUUUCUCCUGUAUACUCAACAGCUCGCAGUCAAG” the figure was 0.136; with “GGUCACGUCUCAAUCAACUCUAACGAGGGGGGGAAAACCCCUUUACCCUCAUCUUCAACAGCUCGCAGUCAAG”, -0.323.
As for “GGUCACGUCUCAAUCAACUCAAUCUCAGGAGUUUCCUCCUGUAUAUUCAACAGCUCGCAGUCAAG”, the figure is 0.0237.
Consider “GGUCACGUCUCAAUCAACUCCCUAGAGGGGGGGAAAACCCCUUUGCCCUCCACAUCAACAGCUCGCAGUCAAG”, for which the binding signal (log2 fold change) is -0.254.
Take “GGUCACGUCUCAAUCAACUCUUUCUCCAGGGAAACCCCUGGCUUAUUCAACAGCUCGCAGUCAAG”: the binding signal (log2 fold change) is -0.0316.
With “GGUCACGUCUCAAUCAACUCUUCUUCAGGAGUUUCCUCCUGUUAUGUCAACAGCUCGCAGUCAAG”, the binding signal (log2 fold change) was found to be 0.0846.
Take “GGUCACGUCUCAAUCAACUCACACGAGGGGGGGAAAACCCCUUUACCCUCUCCAUCAACAGCUCGCAGUCAAG”: the binding signal (log2 fold change) was 0.2.
As for “GGUCACGUCUCAAUCAACUCAACUCCCAGGGAAAGCCCUGGCUUUCUCAACAGCUCGCAGUCAAG”, the figure is 0.0433; as for “GGUCACGUCUCAAUCAACUCUUCUCCCAGGGAAAGCCCUGGCAUAUUCAACAGCUCGCAGUCAAG”, 0.256.
In the case of “GGUCACGUCUCAAUCAACUCUACUUCAGGAGUUUCCUCCUGCAAAUUCAACAGCUCGCAGUCAAG”, the binding signal (log2 fold change) turned out to be 0.112.
Regarding “GGUCACGUCUCAAUCAACUCUUCUUCCAGGGAAAUCCCUGGCUAUCUCAACAGCUCGCAGUCAAG”, the binding signal (log2 fold change) was 0.00216.
Consider “GGUCACGUCUCAAUCAACUCAAUUUCCAGGGAAAUCCCUGGCAUAUUCAACAGCUCGCAGUCAAG”, for which the binding signal (log2 fold change) was 0.0499.
With “GGUCACGUCUCAAUCAACUCAAAAGAGGGGGGGAAAACCCCUUUACCCUCAACCUCAACAGCUCGCAGUCAAG” the figure was -0.211.
In the case of “GGUCACGUCUCAAUCAACUCUUCUUCAGGAGUUUCCUCCUGUAUAUUCAACAGCUCGCAGUCAAG”, the binding signal (log2 fold change) was 0.0449.
In the case of “GGUCACGUCUCAAUCAACUCAAUUUCAGGAGUUUUCUCCUGUGUAUUCAACAGCUCGCAGUCAAG”, the binding signal (log2 fold change) is -0.14.
In the case of “GGUCACGUCUCAAUCAACUCAUCGCCAGGAGUUUACUCCUGUUAAUUCAACAGCUCGCAGUCAAG”, the binding signal (log2 fold change) is -0.0489.
As for “GGUCACGUCUCAAUCAACUCUAUCUCCAGGGAAAGCCCUGGCAAAUUCAACAGCUCGCAGUCAAG”, the figure is -0.0197.
For “GGUCACGUCUCAAUCAACUCAUUCUCAGGAGUUUUCUCCUGCAUAUUCAACAGCUCGCAGUCAAG”, the binding signal (log2 fold change) is 0.151.
As for “GGUCACGUCUCAAUCAACUCUCUCGAGGGGGGGAAAACCCCUUUACCCUCUAAUUCAACAGCUCGCAGUCAAG”, the figure is 0.0891.
In the case of “GGUCACGUCUCAAUCAACUCUUCUCCAGGAGUUUACUCCUGUUAAUUCAACAGCUCGCAGUCAAG”, the binding signal (log2 fold change) is 0.0833.
Regarding “GGUCACGUCUCAAUCAACUCUAGUCCAGGAGUUUACUCCUGCUUAUUCAACAGCUCGCAGUCAAG”, the binding signal (log2 fold change) was 0.0263.
With “GGUCACGUCUCAAUCAACUCUAUUUCCAGGGAAAUCCCUGGUUUUCUCAACAGCUCGCAGUCAAG” the figure was -0.264; with “GGUCACGUCUCAAUCAACUCCCAAGAGGGGGGGAAAACCCCUUUACCCUCAUCCUCAACAGCUCGCAGUCAAG”, -0.0179; with “GGUCACGUCUCAAUCAACUCUUUUUCAGGAGUUUCCUCCUGUUAUGUCAACAGCUCGCAGUCAAG”, 0.0551.
“GGUCACGUCUCAAUCAACUCUUCCUCAGGAGUUUUCUCCUGUAAUCUCAACAGCUCGCAGUCAAG”: the binding signal (log2 fold change) is -0.0416.
For “GGUCACGUCUCAAUCAACUCAAUUUCCAGGGAAAACCCUGGCGUAUUCAACAGCUCGCAGUCAAG”, the binding signal (log2 fold change) is 0.25.
As for “GGUCACGUCUCAAUCAACUCAACUCCCAGGGAAAUCCCUGGCAAUCUCAACAGCUCGCAGUCAAG”, the figure is 0.0457; as for “GGUCACGUCUCAAUCAACUCAUUCCCCAGGGAAAACCCUGGUAUAUUCAACAGCUCGCAGUCAAG”, 0.159; as for “GGUCACGUCUCAAUCAACUCAAUCCCCAGGGAAAGCCCUGGCAUAGUCAACAGCUCGCAGUCAAG”, -0.257.
With “GGUCACGUCUCAAUCAACUCAUUCGAGGGGGGGAAAACCCCUUUACCCUCUAUAUCAACAGCUCGCAGUCAAG” the figure was -0.133; with “GGUCACGUCUCAAUCAACUCUAUCCCAGGAGUUUCCUCCUGUUAUCUCAACAGCUCGCAGUCAAG”, 0.201.
Regarding “GGUCACGUCUCAAUCAACUCAUCGCCAGGAGUUUGCUCCUGCUAUUUCAACAGCUCGCAGUCAAG”, the binding signal (log2 fold change) is -0.0343.
With “GGUCACGUCUCAAUCAACUCUAUCCCAGGAGUUUCCUCCUGCAAUUUCAACAGCUCGCAGUCAAG” the figure was 0.00385.
Consider “GGUCACGUCUCAAUCAACUCAAUUUCAGGAGUUUACUCCUGUAUUCUCAACAGCUCGCAGUCAAG”, for which the binding signal (log2 fold change) came out at 0.159.
As for “GGUCACGUCUCAAUCAACUCAAUCUCAGGAGUUUCCUCCUGUAUAGUCAACAGCUCGCAGUCAAG”, the figure is -0.0514; as for “GGUCACGUCUCAAUCAACUCAAUGUCAGGAGUUUCCUCCUGCUAAUUCAACAGCUCGCAGUCAAG”, -0.109.
In the case of “GGUCACGUCUCAAUCAACUCCCCAGAGGGGGGGAAAACCCCUUUACCCUCCAUCUCAACAGCUCGCAGUCAAG”, the binding signal (log2 fold change) was 0.313.
As for “GGUCACGUCUCAAUCAACUCUAUCCCCAGGGAAAUCCCUGGUAUUUUCAACAGCUCGCAGUCAAG”, the figure is -0.179; as for “GGUCACGUCUCAAUCAACUCUUCCCCAGGAGUUUACUCCUGCUUUUUCAACAGCUCGCAGUCAAG”, 0.153.
“GGUCACGUCUCAAUCAACUCAUUCGAGGGGGGGAAAACCCCUUUACCCUCACUCUCAACAGCUCGCAGUCAAG”: the binding signal (log2 fold change) is -0.234.
“GGUCACGUCUCAAUCAACUCCAUCGAGGGGGGGAAAACCCCUUUACCCUCACACUCAACAGCUCGCAGUCAAG”: the binding signal (log2 fold change) was -0.449.
On to “GGUCACGUCUCAAUCAACUCAACGCCAGGAGUUUACUCCUGUAUAUUCAACAGCUCGCAGUCAAG”, for which the binding signal (log2 fold change) is 0.0411.
For “GGUCACGUCUCAAUCAACUCUUUCUCCAGGGAAAACCCUGGCAUUUUCAACAGCUCGCAGUCAAG”, the binding signal (log2 fold change) was found to be 0.0858.
Regarding “GGUCACGUCUCAAUCAACUCCCCAGAGGGGGGGAAAACCCCUUUGCCCUCAUCUUCAACAGCUCGCAGUCAAG”, the binding signal (log2 fold change) was -0.155.
As for “GGUCACGUCUCAAUCAACUCAGUUUCAGGAGUUUUCUCCUGCUAUUUCAACAGCUCGCAGUCAAG”, the figure is 0.0795.
“GGUCACGUCUCAAUCAACUCUAUAGAGGGGGGGAAAACCCCUUUGCCCUCGUCAUCAACAGCUCGCAGUCAAG”: the binding signal (log2 fold change) was -0.645.
In the case of “GGUCACGUCUCAAUCAACUCUAGUCCCAGGGAAAACCCUGGCUUUUUCAACAGCUCGCAGUCAAG”, the binding signal (log2 fold change) is -0.259.
With “GGUCACGUCUCAAUCAACUCUAUCCCCAGGGAAAGCCCUGGCUUUUUCAACAGCUCGCAGUCAAG”, the binding signal (log2 fold change) was -0.0546.
Consider “GGUCACGUCUCAAUCAACUCUUUCCCCAGGGAAACCCCUGGCUAAUUCAACAGCUCGCAGUCAAG”, for which the binding signal (log2 fold change) is -0.116.
With “GGUCACGUCUCAAUCAACUCUUUCUCAGGAGUUUACUCCUGCUUUCUCAACAGCUCGCAGUCAAG”, the binding signal (log2 fold change) was 0.0497.
For the sequence “GGUCACGUCUCAAUCAACUCUAUUCCAGGAGUUUACUCCUGCUUUCUCAACAGCUCGCAGUCAAG”, the binding signal (log2 fold change) was 0.0402.
As to “GGUCACGUCUCAAUCAACUCUUCGCCCAGGGAAACCCCUGGUAUAUUCAACAGCUCGCAGUCAAG”, the binding signal (log2 fold change) was determined as 0.107.
“GGUCACGUCUCAAUCAACUCAUUUCCCAGGGAAAGCCCUGGCUAACUCAACAGCUCGCAGUCAAG”: the binding signal (log2 fold change) was 0.0699.
Turning to “GGUCACGUCUCAAUCAACUCCAAAGAGGGGGGGAAAACCCCUUUGCCCUCAAAUUCAACAGCUCGCAGUCAAG”, the binding signal (log2 fold change) is 0.295.
As for “GGUCACGUCUCAAUCAACUCUACUCCCAGGGAAACCCCUGGCUAAUUCAACAGCUCGCAGUCAAG”, the figure is 0.138.
“GGUCACGUCUCAAUCAACUCAAUCCCAGGAGUUUCCUCCUGCUUUUUCAACAGCUCGCAGUCAAG”: the binding signal (log2 fold change) was 0.086.
With “GGUCACGUCUCAAUCAACUCAGUCUCCAGGGAAAACCCUGGCAAUCUCAACAGCUCGCAGUCAAG” the figure was 0.0728; with “GGUCACGUCUCAAUCAACUCAAUUCCAGGAGUUUCCUCCUGUUAAUUCAACAGCUCGCAGUCAAG”, 0.0734; with “GGUCACGUCUCAAUCAACUCAAUUUCCAGGGAAAGCCCUGGCUUUCUCAACAGCUCGCAGUCAAG”, 0.243.
With “GGUCACGUCUCAAUCAACUCAAAAGAGGGGGGGAAAACCCCUUUGCCCUCAUUAUCAACAGCUCGCAGUCAAG”, the binding signal (log2 fold change) was -0.0343.
As for “GGUCACGUCUCAAUCAACUCAUUUCCAGGAGUUUGCUCCUGCUUAUUCAACAGCUCGCAGUCAAG”, the binding signal (log2 fold change) came out at 0.064.
“GGUCACGUCUCAAUCAACUCUAUGUCCAGGGAAAUCCCUGGCUUUUUCAACAGCUCGCAGUCAAG”: the binding signal (log2 fold change) is -0.352.
As to “GGUCACGUCUCAAUCAACUCUUUCGAGGGGGGGAAAACCCCUUUACCCUCUUUUUCAACAGCUCGCAGUCAAG”, the binding signal (log2 fold change) turned out to be 0.175.
With “GGUCACGUCUCAAUCAACUCAUCCCCCAGGGAAAUCCCUGGCAUAUUCAACAGCUCGCAGUCAAG”, the binding signal (log2 fold change) was -0.0937.
Turning to “GGUCACGUCUCAAUCAACUCUUUCUCAGGAGUUUUCUCCUGCAUAUUCAACAGCUCGCAGUCAAG”, the binding signal (log2 fold change) was -0.0379.
With “GGUCACGUCUCAAUCAACUCUUCUUCCAGGGAAAACCCUGGUAUUUUCAACAGCUCGCAGUCAAG” the figure was -0.0599; with “GGUCACGUCUCAAUCAACUCCAAAGAGGGGGGGAAAACCCCUUUGCCCUCGUAUUCAACAGCUCGCAGUCAAG”, -0.259.
As for “GGUCACGUCUCAAUCAACUCAAUUCCAGGAGUUUCCUCCUGCUUUCUCAACAGCUCGCAGUCAAG”, the figure is 0.0879; as for “GGUCACGUCUCAAUCAACUCAACGCCAGGAGUUUCCUCCUGUAAUCUCAACAGCUCGCAGUCAAG”, 0.146; as for “GGUCACGUCUCAAUCAACUCAACUCCCAGGGAAAUCCCUGGUAUUCUCAACAGCUCGCAGUCAAG”, -0.111.
As for “GGUCACGUCUCAAUCAACUCAAUUCCCAGGGAAACCCCUGGCUAUCUCAACAGCUCGCAGUCAAG”, the binding signal (log2 fold change) was -0.127.
Take “GGUCACGUCUCAAUCAACUCAUCGGAGGGGGGGAAAACCCCUUUACCCUCAUUAUCAACAGCUCGCAGUCAAG”: the binding signal (log2 fold change) was found to be 0.106.
With “GGUCACGUCUCAAUCAACUCCACAGAGGGGGGGAAAACCCCUUUACCCUCAUCAUCAACAGCUCGCAGUCAAG” the figure was -0.218.

Source of the values: article PMC5892938.
